Substitutions are numbered along the chain they refer to; changes in the protein carry UniProt numbers. The list shows a part of the results.
T1: RBFOX1 RRM (Homo sapiens, UniProt Q9NWB1 109-208)
T1 sequence: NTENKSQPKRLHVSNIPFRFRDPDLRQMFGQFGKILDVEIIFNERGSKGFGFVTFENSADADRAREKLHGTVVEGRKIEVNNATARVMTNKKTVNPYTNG

B1: AAGCGCG (DNA:RNA)
RNA: GGGAGACCGGAAUUCAGAUUGUCCAAGCGCGUUAAAUCCCGUCGUAGCCACCA
DNA 1: CAATCTGAATTCCGGTCTCCC
DNA 2: TGGTGGCTACGACGGGATT
B2: CCGUGCU (DNA:RNA)
RNA: B1 RNA with A25C, A26C, C28U, G31U
DNA 1: CAATCTGAATTCCGGTCTCCC
DNA 2: TGGTGGCTACGACGGGATT
B3: AACGCGC (DNA:RNA)
RNA: B1 RNA with G27C, C28G, G29C, C30G, G31C
DNA 1: CAATCTGAATTCCGGTCTCCC
DNA 2: TGGTGGCTACGACGGGATT
B4: UCGAAUG (DNA:RNA)
RNA: B1 RNA with A25U, A26C, C28A, G29A, C30U
DNA 1: CAATCTGAATTCCGGTCTCCC
DNA 2: TGGTGGCTACGACGGGATT
B5: UGAAAAA (DNA:RNA)
RNA: GGGAGACCGGAAUUCAGAUUGUCCUGAAAAAUUAAAUCCCGUCGUAGCCACCA
DNA 1: CAATCTGAATTCCGGTCTCCC
DNA 2: TGGTGGCTACGACGGGATT
B6: GCUCGCG (DNA:RNA)
RNA: B1 RNA with A25G, A26C, G27U
DNA 1: CAATCTGAATTCCGGTCTCCC
DNA 2: TGGTGGCTACGACGGGATT
B7: UAAACUG (DNA:RNA)
RNA: B5 RNA with G26A, A29C, A30U, A31G
DNA 1: CAATCTGAATTCCGGTCTCCC
DNA 2: TGGTGGCTACGACGGGATT
B8: GAGUGGU (DNA:RNA)
RNA: B1 RNA with A25G, C28U, C30G, G31U
DNA 1: CAATCTGAATTCCGGTCTCCC
DNA 2: TGGTGGCTACGACGGGATT
B9: CACCGCU (DNA:RNA)
RNA: B1 RNA with A25C, G27C, G31U
DNA 1: CAATCTGAATTCCGGTCTCCC
DNA 2: TGGTGGCTACGACGGGATT
B10: UCGGUGA (DNA:RNA)
RNA: B5 RNA with G26C, A27G, A28G, A29U, A30G
DNA 1: CAATCTGAATTCCGGTCTCCC
DNA 2: TGGTGGCTACGACGGGATT
B11: ACCGUUC (DNA:RNA)
RNA: B1 RNA with A26C, G27C, C28G, G29U, C30U, G31C
DNA 1: CAATCTGAATTCCGGTCTCCC
DNA 2: TGGTGGCTACGACGGGATT
B12: UACGACU (DNA:RNA)
RNA: B1 RNA with A25U, G27C, C28G, G29A, G31U
DNA 1: CAATCTGAATTCCGGTCTCCC
DNA 2: TGGTGGCTACGACGGGATT
B13: CCGAGAG (DNA:RNA)
RNA: B1 RNA with A25C, A26C, C28A, C30A
DNA 1: CAATCTGAATTCCGGTCTCCC
DNA 2: TGGTGGCTACGACGGGATT
B14: CUUGUGC (DNA:RNA)
RNA: GGGAGACCGGAAUUCAGAUUGUCCCUUGUGCUUAAAUCCCGUCGUAGCCACCA
DNA 1: CAATCTGAATTCCGGTCTCCC
DNA 2: TGGTGGCTACGACGGGATT
B15: AGCUACG (DNA:RNA)
RNA: B1 RNA with A26G, G27C, C28U, G29A
DNA 1: CAATCTGAATTCCGGTCTCCC
DNA 2: TGGTGGCTACGACGGGATT
B16: GAUGACA (DNA:RNA)
RNA: B1 RNA with A25G, G27U, C28G, G29A, G31A
DNA 1: CAATCTGAATTCCGGTCTCCC
DNA 2: TGGTGGCTACGACGGGATT
B17: AAACGUC (DNA:RNA)
RNA: B1 RNA with G27A, C30U, G31C
DNA 1: CAATCTGAATTCCGGTCTCCC
DNA 2: TGGTGGCTACGACGGGATT
B18: AUGAAGC (DNA:RNA)
RNA: B14 RNA with C25A, U27G, G28A, U29A
DNA 1: CAATCTGAATTCCGGTCTCCC
DNA 2: TGGTGGCTACGACGGGATT
B19: UGUACUA (DNA:RNA)
RNA: B5 RNA with A27U, A29C, A30U
DNA 1: CAATCTGAATTCCGGTCTCCC
DNA 2: TGGTGGCTACGACGGGATT
B20: AGCAAGU (DNA:RNA)
RNA: B5 RNA with U25A, A27C, A30G, A31U
DNA 1: CAATCTGAATTCCGGTCTCCC
DNA 2: TGGTGGCTACGACGGGATT
B21: GCGGGUG (DNA:RNA)
RNA: B1 RNA with A25G, A26C, C28G, C30U
DNA 1: CAATCTGAATTCCGGTCTCCC
DNA 2: TGGTGGCTACGACGGGATT
B22: GAGUUCU (DNA:RNA)
RNA: B1 RNA with A25G, C28U, G29U, G31U
DNA 1: CAATCTGAATTCCGGTCTCCC
DNA 2: TGGTGGCTACGACGGGATT
B23: UAUAGUU (DNA:RNA)
RNA: B1 RNA with A25U, G27U, C28A, C30U, G31U
DNA 1: CAATCTGAATTCCGGTCTCCC
DNA 2: TGGTGGCTACGACGGGATT
B24: AAUGAAA (DNA:RNA)
RNA: B5 RNA with U25A, G26A, A27U, A28G
DNA 1: CAATCTGAATTCCGGTCTCCC
DNA 2: TGGTGGCTACGACGGGATT
B25: GGUCGGG (DNA:RNA)
RNA: B1 RNA with A25G, A26G, G27U, C30G
DNA 1: CAATCTGAATTCCGGTCTCCC
DNA 2: TGGTGGCTACGACGGGATT
B26: CACUGUG (DNA:RNA)
RNA: B1 RNA with A25C, G27C, C28U, C30U
DNA 1: CAATCTGAATTCCGGTCTCCC
DNA 2: TGGTGGCTACGACGGGATT
B27: AUUCGAG (DNA:RNA)
RNA: B1 RNA with A26U, G27U, C30A
DNA 1: CAATCTGAATTCCGGTCTCCC
DNA 2: TGGTGGCTACGACGGGATT
B28: CUAACGC (DNA:RNA)
RNA: B14 RNA with U27A, G28A, U29C
DNA 1: CAATCTGAATTCCGGTCTCCC
DNA 2: TGGTGGCTACGACGGGATT
B29: GGUCGUG (DNA:RNA)
RNA: B1 RNA with A25G, A26G, G27U, C30U
DNA 1: CAATCTGAATTCCGGTCTCCC
DNA 2: TGGTGGCTACGACGGGATT
B30: AGUUCCU (DNA:RNA)
RNA: B1 RNA with A26G, G27U, C28U, G29C, G31U
DNA 1: CAATCTGAATTCCGGTCTCCC
DNA 2: TGGTGGCTACGACGGGATT
B31: GCGAGAA (DNA:RNA)
RNA: B5 RNA with U25G, G26C, A27G, A29G
DNA 1: CAATCTGAATTCCGGTCTCCC
DNA 2: TGGTGGCTACGACGGGATT

What follows are binders tested against T1, RBFOX1 RRM (assay: EMSA; HiTS-Eq, 1 nM pool, 10 min; buffer printed only for the single-RNA assays: 10 mM Tris pH 7.5, 150 mM NaCl, 3.4 mM EDTA, 0.001% NP-40, 30 C). Details: tags: His6 N-terminal (pET28a); label: 5' 32P.
Summary of the method: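 These values rest on relative association constants, computed from read-count changes of each RNA species versus the control reaction and normalised to the cognate motif. Reads came from free RNA recovered by 8% native PAGE after purified RbFox RRM (wild type or mutant) at increasing concentrations was equilibrated for 10 min in 50 µL with 1 nM of a 5′-radiolabelled pool with 7 randomized nucleotides and DNA-annealed flanks.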

Binder | binding signal
B1 | 0.0111 KA relative to UGCAUGU
B2 | 0.0119 KA relative to UGCAUGU
B3 | 0.00997 KA relative to UGCAUGU
B4 | 0.0323 KA relative to UGCAUGU
B5 | 0.00801 KA relative to UGCAUGU
B6 | 0.0177 KA relative to UGCAUGU
B7 | 0.0089 KA relative to UGCAUGU
B8 | 0.0185 KA relative to UGCAUGU
B9 | 0.00254 KA relative to UGCAUGU
B10 | 0.0136 KA relative to UGCAUGU
B11 | 0.00437 KA relative to UGCAUGU
B12 | 0.00447 KA relative to UGCAUGU
B13 | 0.0109 KA relative to UGCAUGU
B14 | 0.0261 KA relative to UGCAUGU
B15 | 0.00807 KA relative to UGCAUGU
B16 | 0.00802 KA relative to UGCAUGU

Binder | binding signal
B17 | 0.00458 KA relative to UGCAUGU
B18 | 0.00713 KA relative to UGCAUGU
B19 | 0.0114 KA relative to UGCAUGU
B20 | 0.0132 KA relative to UGCAUGU
B21 | 0.021 KA relative to UGCAUGU
B22 | 0.0146 KA relative to UGCAUGU
B23 | 0.00973 KA relative to UGCAUGU
B24 | 0.00591 KA relative to UGCAUGU
B25 | 0.0138 KA relative to UGCAUGU
B26 | 0.0112 KA relative to UGCAUGU
B27 | 0.0104 KA relative to UGCAUGU
B28 | 0.00556 KA relative to UGCAUGU
B29 | 0.00709 KA relative to UGCAUGU
B30 | 0.00839 KA relative to UGCAUGU
B31 | 0.0152 KA relative to UGCAUGU

From article PMC9911399, “Two distinct binding modes provide the RNA-binding protein RbFox with extraordinary sequence specificity”
